# According to the supplement of paper PMC10986608:
# The list shows a part of the results. Single values are uncertain, as repeats are few or missing.
# System: Candida albicans DPL-15
# Assay: growth (OD600) after compound treatment (apparently relative to screen median) (relative growth (fraction; screen median 1.02)); DPL-15 is a caspofungin-resistant clinical isolate; higher = more fungal growth (less antifungal activity)
# Details: 25 µM; RPMI 1640; 48 h; 30 °C
row,SMILES,growth
1,COC(=O)C1=C(C)N(Cc2ccccc2)C(=O)N[C@H]1c1ccco1,1.12
2,COc1cc([C@H]2[C@H](C(=O)NCc3ccccc3)[C@@H](C(=O)NCc3ccccc3)[C@@H]2c2cc(OC)c(OC)c(OC)c2)cc(OC)c1OC,1.07
3,COc1cc(O)c2c(c1)O[C@H](c1ccccc1)CC2=O,0.981
4,COC[C@@H](O)[C@H]1OCc2cccc(OC)c2[C@@H]1/C=C/c1ccccc1,0.917
5,COC(=O)N[C@@H](c1ccccc1)C(C(=O)OC)C(=O)OC,0.942
6,C=CCc1c(O)cc(O)c2c1O[C@H](c1ccc(O)cc1)CC2=O,1.03
7,CCN(CC)CCCC(C)Nc1c2cccc(OC)c2nc2c(C(=O)Nc3ccc(CCN4CCc5cc(OC)c(OC)cc5C4)cc3)cccc12 (stereo not given),0.985
8,Fc1cc(F)c2c3c([nH]c2c1)CCCC3,1.15
9,CO[C@@H]1CCN(C(=O)c2c(O)cc(O)cc2Nc2c(C)nn(C)c2C)C1,1.04
10,Cc1c([C@]23CCN(C(=O)c4ccc(C(F)(F)F)cc4)[C@H]2Nc2ccccc23)[nH]c2ccccc12,1.11
11,C[C@H]1Cc2c(COc3ccccc3)nc3c(c2CO1)CN(C(=O)c1cc(I)ccc1F)CC3,1.04
12,O=C1NC[C@H](c2ccccc2)N1,1.05
13,COCCN[C@@]12c3nc(-c4ccccc4)[nH]c(=O)c3[C@@H](c3ccccc3)[C@]1(c1ccc(OC)cc1)Oc1cc(OC)cc(OC)c12,1.18
14,CC#CCN1C(=O)N(C(C)=O)C(c2ccccc2)C(C(C)=O)=C1C (stereo not given),1.2
15,C[C@H]1O[C@H]2C3=C(CCOC3=O)[C@@H]1[C@@H]1C(=O)N(c3ccc(Br)cc3)C(=O)[C@@H]12,1.02
16,Cn1nc(-c2ccc(OC(F)(F)F)cc2)cc1N,1.15
17,COCCNC1=NC(c2cccc(Cl)c2)C(C(=O)OC)=C(C)N1Cc1ccc(C(F)(F)F)cc1 (stereo not given),1.07
18,Cc1cc(O)c2c(c1)O[C@]1(C(=O)O)C(=C(O)CC[C@H]1O)C2=O,1.14
19,Nc1cc(-c2ccccc2)nn1C1CCCCC1,0.952
20,COC(=O)C/C=C/[C@H](C)[C@@H](NC(=O)[C@H](Cc1ccccc1)NC(=O)OCC1c2ccccc2-c2ccccc21)c1ccccc1,1.21
21,CC(C)C1=NCCN(C)C2=C1C(c1ccc(Br)cc1)NC2=O (stereo not given),0.987
22,COc1ccc2c(c1)[C@@]1(OCCC=C[C@H]1C)C(=O)N2Cc1ccc(F)cc1,0.987
23,O=C1NC(c2ccc(F)cc2)c2c1nn(-c1ccc(OC(F)(F)F)cc1)c2-c1ccccc1 (stereo not given),0.804
24,COC(=O)c1cc2c(c3c4cc(C)ccc4n(S(=O)(=O)c4ccc(OC)cc4)c13)C(=O)N(Cc1ccc(C)cc1)C2,0.984
25,COC(=O)C1=C(C)Oc2ccccc2[C@@H]1c1ccccc1,0.899
26,COc1cc([C@@H]2[C@@H](C(=O)NC3CCCCC3)[C@H](C(=O)NC3CCCCC3)[C@H]2c2cc(OC)c(OC)c(OC)c2)cc(OC)c1OC,0.971
27,COc1ccc(-c2c(O)c(=O)c3ccccc3n2C)cc1,0.682

row,SMILES,growth
1,COC(=O)C1=C(CCl)N(C(C)=O)C(=O)N(C(C)=O)C1c1cccc(C#N)c1 (stereo not given),1.46
2,Cc1ccc(C2NC(=O)C3=C2C(CC(C)C)=NCCN3)cc1 (stereo not given),1.06
3,COC(=O)C1=C(C)N(Cc2ccc(C(F)(F)F)cc2)C(NCCc2cccs2)=NC1c1ccccc1 (stereo not given),0.841
4,O=C(OC[C@@]1(O)C(=O)[C@H]2C=C[C@@H]1[C@H]1C2C=CC(=O)[C@]1(O)COC(=O)c1ccccc1)c1ccccc1 (stereo not given in full),0.803
5,C=C(C)C[C@H](O)COc1cc2c(cc1C1(c3cc4c(cc3OC[C@@H](O)CC(=C)C)OCO4)C(=O)Nc3c(F)cccc31)OCO2,0.919
6,O=C(c1c(O)cc(O)cc1Nc1ccnn1Cc1ccc(C(F)(F)F)cc1)N1Cc2cn[nH]c2C1,0.96
7,Cc1cc(CCCc2ccccc2)nc(CCCc2ccccc2)c1,1.18
8,CC1=NCC(C)(C)NC2=C1C(c1ccc(Br)cc1)N(c1ccccc1)C2=O (stereo not given),0.901
9,COC(=O)c1ccc(Oc2cc(Br)cc(OC)c2)o1,0.96
10,COC(=O)C1=C(C)NC(=S)NC1c1ccc(Br)cc1 (stereo not given),1.01
11,CN1CCN=C(c2ccccc2)C2=C1C(=O)N(Cc1ccccc1)C2c1ccc(F)cc1 (stereo not given),1.04
12,CCc1ccccc1-n1nc2c(c1-c1ccccc1)C(c1ccc(C)cc1)NC2=O (stereo not given),0.909
13,COC(=O)C1=C(C)N(Cc2ccc(F)cc2)C(=S)NC1c1ccccc1Cl (stereo not given),0.983
14,COc1cc(O)c(C(=O)[C@H]2CC=C(CCC=C(C)C)C[C@@H]2c2ccsc2)c(O)c1,1.08
15,COC(=O)[C@@]1(C)CC[C@]2(C)CC[C@]3(C)C(=CC(=O)C4[C@@]5(C)CC[C@H](OS(N)(=O)=O)C(C)(C)[C@@H]5CC[C@]43C)[C@@H]2C1 (stereo not given in full),1.05
16,COC(=O)C1=C(C)N(Cc2ccc(Cl)cc2)C(=S)NC1c1cccc(Cl)c1 (stereo not given),0.944
17,CCCN1C(=S)NC(c2cccc(OC)c2)C(C(=O)OC)=C1C (stereo not given),1.02
18,COc1ccc(N2C(=O)C3=C(C(C(C)C)=NCCN3C)C2c2ccc(C)cc2)cc1 (stereo not given),1.04
19,CC1=C[C@@H](COCc2ccccc2)O[C@@]2(C1)C(=O)Nc1cccc(Br)c12,0.93
20,COC(=O)CC#C[C@H](C)[C@@H](NS(C)(=O)=O)C1CCCCC1,0.931
21,C/C=C(\C)C1=C2CCCOC2CCCN1S(=O)(=O)c1ccc([N+](=O)[O-])cc1 (stereo not given),1.1
22,CONC(=O)[C@H]1[C@@H](O)[C@@]2(O)c3c(OC)cc(F)cc3O[C@@]2(c2ccc(Br)cc2)[C@@H]1c1ccccc1,0.97
23,COC(=O)N[C@@H]1[C@@H](C)[C@H](OC)[C@]23C=CC=C[C@H]2[C@]13CCN1CCCC1,1.21
24,CC1(C)CN=C(c2ccccc2)C2=C(N1)C(=O)NC2c1cccc(C(F)(F)F)c1 (stereo not given),0.94
25,Fc1ccc([C@H]2OC[C@H]3[C@@H]2CO[C@@H]3c2ccc(F)cc2)cc1,1.02
26,CC(C)(C)CC(=O)Cc1cc(O)cc(O)c1C(=O)N1Cc2ccccc2C1,1.09
27,CC1(C)C(CO)C1COCc1ccccc1 (stereo not given),1.17

row,SMILES,growth
1,CC(C)Cc1n[nH]c2c1C(c1ccc(F)cc1)N(c1ccccc1)C2=O (stereo not given),0.931
2,O=C(c1c(O)cc(O)cc1Nc1ccnn1CC1CCCCC1)N1Cc2cccnc2C1,1.03
3,CC(C)CCc1cc(O)c(O)c2oc3cc(O)cc(O)c3c(=O)c12,0.342
4,CC1(Cc2occc(=O)c2OS(C)(=O)=O)C(c2ccc(F)cc2)=Nc2ccccc21 (stereo not given),1.07
5,O=C(O)c1cccc2cnnn12,1.64
6,C=C(C)[C@@H]1CC[C@]2(COC(C)=O)CC[C@]3(C)[C@H](CC[C@@H]4[C@@](C)(CCC5OCCO5)[C@H](C(=C)C)CC[C@]43C)[C@@H]12,1.17
7,O=C(O)/C=C/NC(=O)c1ccccc1,1.2
8,CC(=O)C1=C(C)N(Cc2ccc(F)cc2)C(=S)NC1c1ccccc1Cl (stereo not given),1.11
9,COC(=O)C1=C(C(=O)OC)[C@@H](c2ccccc2)O[C@H]1c1cccs1,1.17
10,C=CCOC(=O)/C=C/NC(=O)[C@@H]1OC(C)(C)OCC1(C)C,0.954
11,C=CCC[C@@H](O)COc1cc2c(cc1C1(c3cc4c(cc3OC[C@H](O)CCC=C)OCO4)C(=O)Nc3c(F)cccc31)OCO2,0.863
12,CC(=O)C1=C(C)N(Cc2ccc(F)cc2)C(=S)NC1c1ccc(F)cc1 (stereo not given),0.954
13,C#C[C@H](C)OC(=O)c1nnc2c3ccccc3n(COC)c2n1,1.07
14,C#CCC(C)(C)CNC(=O)CC1(CNC(=O)c2cccc(/C=N/NS(=O)(=O)c3ccc(C)cc3)c2)CCN(S(=O)(=O)c2ccc(C)cc2)CC1,1.13
15,COc1ccc(Cn2nc(-c3ccoc3)cc2N)cc1,1.08
16,N#Cc1ccc(-c2[nH]c3ccccc3c(=O)c2O)cc1,0.558
17,CC(=O)NCC1CNC(=O)CC2(CCCCC2)CNC(=O)c2cccc(c2)-c2[nH]ncc2CO1 (stereo not given),1.21
18,C=CC[C@]12C[C@@]3(O[C@H](C4CCNCC4)N=C3C[C@H](c3ccc(OC)cc3)[C@H]1C)N(Cc1cccs1)C2=O,0.884
19,COc1ccc(N2C(=O)c3[nH]nc(CC(C)C)c3C2c2ccccn2)cc1 (stereo not given),0.918
20,COCCN1C(=O)N[C@@H](c2cccc(C(F)(F)F)c2)C(C(C)=O)=C1C,1.03
21,COc1ccc(C[C@H](CO)[C@H](CO)Cc2ccc3c(c2)OCO3)cc1OC,1.14
22,Cc1ccc(C2NC(=O)C3=C2C(C(C)C)=NCCN3C)cc1 (stereo not given),0.977
23,COc1ccc(N2C(=O)C3=C(C(C)=NCCN3C)C2c2ccccc2)cc1 (stereo not given),1.06
24,CC(=O)C1=C2C=CCCN2C(=O)NC1c1ccc(-c2cccc(C)c2)cc1 (stereo not given),0.913
25,CC(C)Cc1n[nH]c2c1C(c1ccc(F)cc1)N(c1ccc(N3CCCC3=O)cc1)C2=O (stereo not given),1.02
26,COC(=O)c1cc(=O)c2c(O)cc(C#Cc3cccc(OC)c3)cc2o1,1.23
